We go through 31 compounds from PubChem BioAssay AID1240 (Sanford-Burnham Center for Chemical Genomics, 2008).

The whole screen tested about 50,000 compounds, of which about 800 (1.6%) showed an effect of 50% or more. This is one part of the list.

The target in this test is Bcl-2-like protein 10 (Homo sapiens) (UniProt Q9HD36). Kind of test: TR3 peptide-Bcl-B binding displacers, biochemical primary FP assay, phenotype converters (AID 1240).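 Further: 0% = Bcl-B with tracer peptide and DMSO and 100% = tracer peptide lacking Bcl-B.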 The note with it: GST-Bcl-B / FITC-TR3 peptide fluorescence polarization; stronger effect = higher value; compound at 3.75 mg/L. (Polarisation of emitted light reports the rotation of a fluorescent probe.)
Chain of UniProt Q9HD36 (Q9HD36 whole entry, looked up): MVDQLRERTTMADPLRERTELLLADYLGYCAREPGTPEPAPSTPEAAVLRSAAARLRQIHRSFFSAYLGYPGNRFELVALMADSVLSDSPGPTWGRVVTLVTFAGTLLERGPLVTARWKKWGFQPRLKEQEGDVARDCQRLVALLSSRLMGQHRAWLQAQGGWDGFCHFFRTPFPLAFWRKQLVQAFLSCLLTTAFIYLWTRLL
For `O=C(Nc1ccc(Cl)cn1)c1cc(F)c(F)cc1Cl`, the displacement is -2.7%.
On to `CCOC(=O)c1c(C)oc2cc(Br)c(OCC)cc12`, for which the displacement is 10.3%.
Take `CC(=O)N(C1=C(N2CCCCC2)C(=O)c2ccccc2C1=O)c1ccc(Br)cc1`: the displacement worked out at 2.8%.
With `Cc1ccc(/C(O)=C2\C(=O)C(=O)N(CCCC(=O)O)C2/C=C/c2ccccc2)cc1` (stereo unspecified), the displacement stood at 9.5%.
In the case of `Cc1cc(-n2ccc(=O)[nH]c2=O)nc(-c2ccccc2)n1`, the displacement was -19.4%.
Turning to `CC(=O)/C(C)=C(\NC(=O)c1ccccc1)c1ccccc1`, the displacement stood at 0.1%.
As for `O=C(NCCc1ccc(F)cc1)C(=O)Nc1ccc(Cl)cc1`, the displacement stood at 1.6%.
As for `O=C(NNC(=O)c1ccco1)c1ccco1`, the displacement was -10.1%.
With `COC(=O)c1c(C)oc2cc3c(C(=O)OC)c(C)oc3cc12`, the displacement turned out to be 8.5%.
As for `CCOc1ccccc1C(=O)Nc1cccc(C(C)=O)c1`, the displacement is 21.9%.
Consider `CN1C(=O)/C(=C\c2ccccc2OCc2cccc3ccccc23)SC1=S`, for which the displacement was determined as 1.7%.
The result for `COc1ccc(CNC(=O)Cc2ccc(Br)cc2)cc1` reads 0%.
For the compound `O=[N+]([O-])c1cccc(-c2nc(-c3ccc(Cl)cc3)no2)c1`, the displacement is 12.7%.
In the case of `CC(Nc1n[nH]c(=O)[nH]c1=O)C(=O)N/N=C/c1ccccc1Cl` (stereo unspecified), the displacement is -4.2%.
As for `O=[N+]([O-])c1ccc2nc(SCc3nc4ccccc4[nH]3)sc2c1`, the displacement worked out at 3.8%.
For the compound `O=C1N/C(=N\N=C\c2ccco2)SC1Cc1cc(Cl)ccc1Cl` (stereo unspecified), the displacement is -0.4%.
As to `CC(=O)c1ccc(NC(=O)c2cc3ccccc3o2)cc1`, the displacement was determined as 4.7%.
Regarding `O=C(CSc1nc2ccccc2o1)OCC(=O)c1ccc(Cl)cc1`, the displacement is -0.4%.
Regarding `CCOC(=O)C1NN=C(C(=O)c2ccccc2)C1c1ccccc1` (stereo unspecified), the displacement amounted to 3.7%.
For the compound `Cc1cc(C)c(NC(=O)C2CCCN2CCCO)c(C)c1` (stereo unspecified), the displacement was -10.7%.
Turning to `O=C(Cc1ccccc1)NC(c1ccco1)c1c(O)ccc2ccccc12` (stereo unspecified), the displacement was 14.3%.
Take `NNc1ccc(/C=C/c2ccc(NN)cc2S(=O)(=O)O)c(S(=O)(=O)O)c1`: the displacement turned out to be 3.6%.
The result for `CC(C)c1ccc(/C=N/NC(=O)c2cc(-c3ccc(Cl)cc3)n[nH]2)cc1` reads -12.7%; that for `COc1ccc(C(=O)O/N=C(\N)c2ccccc2)cc1`, -9.3%.
`CCOC(=O)COc1ccc(/C=C2\SC(=Nc3cccc(Cl)c3C)NC2=O)cc1OCC`: the displacement is -17.5%.
For the compound `CCOC(=O)C1=C(C)N(c2ccc(OCC)cc2)C(=O)C1`, the displacement was 3.9%.
Consider `Cc1ccc(-c2nc3sc4c(c3c(=O)o2)CCCCC4)cc1`, for which the displacement amounted to 41.1%.
Take `O=C1NC(=S)N(c2ccccc2)C(=O)/C1=C/c1cc(Br)c(O)c(Br)c1`: the displacement is -4.6%.
As to `O=C(CCN1C(=O)/C(=C\c2cccs2)SC1=S)Nc1cc(Cl)ccc1O`, the displacement was 42.1%.
On to `Cc1ccc2c(Cl)c(C(=O)NCc3ccccn3)sc2c1`, for which the displacement was -12.1%.
On to `O=C(Nc1ccccc1C(=O)O)c1cccc(S(=O)(=O)NC2CCCCC2)c1`, for which the displacement is -12.6%.
